# Data as given in the supplement of paper PMC3334620.
# Over roughly 33,000 sequences, “E-score (-0.5 to 0.5)” has its median near -0.016; the highest 2% begin near 0.31. The list shows a part of the results.
# Molecular target: Cst6 (UniProt P40535)
# Assay: PBM E-score (8-mer binding enrichment) (E-score (-0.5 to 0.5)); higher = stronger / more preferred TF binding; most listed sequences are background and not binding sites
# Conditions: protein concentration: 200 nM; construct: GST-DNA-binding domain
# Description: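 Universal 'all 10-mer' protein binding microarrays (Agilent AMADID 015681) probed with GST-tagged S. cerevisiae TFs (full-length or DBD) made by in vitro transcription/translation (PURExpress), about 100-200 nM. Bound TF was detected with fluorescent anti-GST. Each ungapped 8-mer (which stands for itself and its reverse complement) is scored by the PBM enrichment score (E-score), a modified Wilcoxon-Mann-Whitney statistic from -0.5 to +0.5, computed with the Universal PBM Analysis Suite. Scale: above 0.35 generally sequence-specific binding.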
row,Sequence,PBM E-score
1,CACCGTTC,-0.0919
2,ACTTGGTC,-0.043
3,ACTATGGG,-0.23
4,ATCATGGC,0.00482
5,ACATGTCG,-0.0571
6,GGCGCTGA,0.087
7,ATCAAGTA,0.0486
8,TAGTAAAA,0.2
9,CCATACGA,-0.0654
10,ACAATCTG,0.00272
11,AGTATGTA,0.0263
12,ACACCGGC,-0.131
13,CGACTGTA,-0.164
14,TATCCTAA,0.0771
15,AAGCAGTC,-0.157
16,CTTCACTA,-0.0315
17,ACGCTAGA,-0.243
18,ACCGAGGA,-0.0481
19,TAGTGCCA,-0.123
20,GGGTGCAA,-0.0608
21,TAAAGATA,0.146
22,GGGAAAGA,-0.0768
23,GTCAATGA,0.235
24,ACTGAGCT,-0.0328
25,CTGAGATA,0.0117

row,Sequence,PBM E-score
1,AAAGACTT,-0.00509
2,CAAGGCGC,0.191
3,AAAATGCG,0.0836
4,GCTTGAGA,-0.12
5,AGTACGGC,0.259
6,ATAGTTTA,0.0387
7,CTAGACGA,-0.133
8,ACACCGGG,-0.097
9,AGACTGGG,-0.152
10,TATTCTGA,0.0525
11,CTATGGAG,-0.236
12,AAGTTTAC,0.165
13,GATGACCC,-0.0821
14,ACTCGAAC,0.166
15,AGACTGCG,-0.0946
16,CCAGCTCC,-0.29
17,GAATTGCA,0.068
18,ATACCTAC,-0.0269
19,ACGTTTTC,0.0851
20,AAGAATTC,0.0929
21,GTCTGAAC,-0.0404
22,AAGGCGAA,0.0155
23,AGGCAACC,-0.178
24,ATTAAAAA,0.323
25,GTCCGGCA,-0.176

row,Sequence,PBM E-score
1,AAAGGCGC,0.0473
2,TCAAGTCA,0.129
3,AACCAGGC,-0.083
4,TCGTGAGA,-0.011
5,CTCGCACC,-0.219
6,CACAAATG,0.0462
7,ACTAGACG,0.106
8,GCGGACCC,-0.281
9,GTACGGCA,0.249
10,CAACGGAA,0.13
11,AAGAAGTA,0.158
12,AAGATACA,0.211
13,ATATGGGG,-0.134
14,AGAGAGCG,-0.186
15,CACCAAGC,-0.131
16,CAGTCCCC,-0.311
17,ATGGGGGC,-0.311
18,GGTCTGTA,-0.183
19,GTCACGGA,0.148
20,CAGATTGG,-0.24
21,ATATGAAC,0.246
22,ACCGGCAT,-0.0617
23,CCAGTGAC,0.176
24,AAATCAGC,0.195
25,GAACAATC,0.00671

row,Sequence,PBM E-score
1,CATGCAGG,-0.197
2,CTTCGCCC,-0.288
3,AGTGATGC,0.317
4,GTTGAATA,0.154
5,AGATACAC,0.0892
6,ACCGGGCT,-0.25
7,GCCGATCA,0.0606
8,GATTCGAA,0.135
9,ACTAATTA,0.351
10,CACCATCC,-0.028
11,CATCACAC,0.273
12,AGATTGCT,-0.207
13,TGGACCAA,-0.0585
14,ATAGACAC,0.122
15,CCAACCGG,-0.0768
16,AGTTCCTC,-0.319
17,GGGTATGA,0.156
18,CCAAAAGA,0.207
19,AGGCGAGC,-0.195
20,CACCGACG,0.0197
21,GTTAGCAA,0.0353
22,CCCATAAG,-0.157
23,ACCCTAGG,-0.211
24,AGCCTCCT,-0.181
25,AATGGCTA,0.0894

row,Sequence,PBM E-score
1,CAACGCAA,0.0859
2,GGCGAACA,-0.0418
3,ACATGGGG,-0.201
4,CCCGGCGG,-0.265
5,CGTCGTCC,-0.232
6,GCTAACAC,-0.00396
7,AAATGAGC,0.105
8,ATATCCAC,-0.0157
9,CGTACCTC,-0.262
10,ATTCGGCG,0.0868
11,AGGCGTAT,0.127
12,TACTATGA,0.23
13,AGTCGGAC,-0.144
14,ATACCGCG,-0.138
15,ATTTATTG,0.0971
16,ATAGAAAG,-0.011
17,GTTGGACA,-0.0168
18,GAGCGCTC,-0.24
19,AAGTAAGT,0.116
20,AACGGCAG,0.134
21,ACTTATAC,0.135
22,ATTGTGTC,0.218
23,CAATTCTC,0.0386
24,GATCTCGC,0.01
25,CTGCCGCC,-0.203

row,Sequence,PBM E-score
1,GTTGCCTA,-0.0301
2,CAAGTTGA,-0.0213
3,GACCATCA,-0.0339
4,AAAGTTAA,0.241
5,ATTTCGTA,0.175
6,GGAGTTTA,0.00491
7,AACGTTCC,-0.191
8,CTTGAGAA,0.0695
9,GCTGGGTA,-0.252
10,AACAGTAT,0.218
11,ACTTATGG,-0.048
12,CCATTGAG,0.0407
13,CCGATTTC,-0.121
14,AACTTCTC,0.132
15,CCCCGCCC,0.0656
16,ATACCAAA,0.0247
17,ATGCACTC,-0.133
18,ACAGATAG,0.00637
19,CTCCAAGA,-0.127
20,CTGGAGTC,-0.274
21,CTACCGAA,-0.0902
22,CGCCTAAC,0.0659
23,CAACAATA,0.214
24,ACCCCCCT,-0.435
25,TACTGTCA,0.111

row,Sequence,PBM E-score
1,AGGATTCA,0.048
2,AACGAGTG,0.0104
3,TAACAGGA,0.148
4,ATACTCCG,0.00929
5,GCCGATAC,-0.136
6,CGAAATGC,0.0485
7,CACGCATC,0.0172
8,GCTAGTGA,0.183
9,CCGGTTAG,-0.095
10,CGGCGCAG,0.17
11,ACCCTCAT,-0.328
12,AGTACCAC,-0.14
13,CGTGGGCA,-0.174
14,CGTATCGA,0.0611
15,CCACTCGA,0.0183
16,AACATTGA,0.139
17,CGTGAGAA,0.0747
18,CGCGGGAC,-0.207
19,CATGGCAC,0.103
20,CACTTCCG,-0.0551
21,AGGAATGA,0.137
22,GTGCGACA,-0.0902
